Some of the results follow.
Assays:
Experiment in all cases: glycan array binding signal (z-score within array); higher = stronger binding
Settings in all cases: glycan notation: IUPAC condensed, linker removed
[1] = target: Neu5Ac(a2-6)Gal(b1-4)GlcNAc(b1-2)Man(a1-3)[GlcNAc(b1-2)Man(a1-6)]Man(b1-4)GlcNAc(b1-4)GlcNAc
Method in brief: (§1)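 Negative Z-scores can be read as non-binding. The Z-score is calculated within each array and then averaged across arrays of one protein sequence at different concentrations or buffers and across linkers. Arrays, 3228 in all, were curated from the Consortium for Functional Glycomics database and kept only where the protein sequence was available.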

[2] = target: Neu5Ac(a2-6)Gal(b1-4)GlcNAc(b1-2)Man(a1-3)[GlcNAc(b1-2)Man(b1-4)GlcNAc(b1-2)Man(a1-6)]Man(b1-4)GlcNAc(b1-4)GlcNAc
Method in brief: as §1

[3] = target: Neu5Ac(a2-6)Gal(b1-4)GlcNAc(b1-2)Man(a1-3)[Man(a1-6)]Man(b1-4)GlcNAc(b1-4)GlcNAc
Method in brief: as §1

[4] = target: Neu5Ac(a2-6)Gal(b1-4)GlcNAc(b1-2)Man(a1-3)[Neu5Ac(a2-6)Gal(b1-4)GlcNAc(b1-2)Man(a1-6)]Man(b1-4)GlcNAc(b1-4)GlcNAc
Method in brief: as §1

[5] = target: Neu5Ac(a2-6)Gal(b1-4)GlcNAc(b1-2)Man(a1-6)Man(b1-4)GlcNAc(b1-4)GlcNAc
Method in brief: as §1

[6] = target: Neu5Ac(a2-6)Gal(b1-4)GlcNAc(b1-2)Man(a1-6)[Gal(b1-4)GlcNAc(b1-2)Man(a1-3)]Man(b1-4)GlcNAc(b1-4)GlcNAc
Method in brief: as §1

[7] = target: Neu5Ac(a2-6)Gal(b1-4)GlcNAc(b1-2)Man(a1-6)[GlcNAc(b1-2)Man(a1-3)]Man(b1-4)GlcNAc(b1-4)GlcNAc
Method in brief: as §1

[8] = target: Neu5Ac(a2-6)Gal(b1-4)GlcNAc(b1-2)Man(a1-6)[Man(a1-3)]Man(b1-4)GlcNAc(b1-4)GlcNAc
Method in brief: as §1

[9] = target: Neu5Ac(a2-6)Gal(b1-4)GlcNAc(b1-3)Gal(b1-3)GlcNAc
Method in brief: as §1

[10] = target: Neu5Ac(a2-6)Gal(b1-4)GlcNAc(b1-3)Gal(b1-4)GlcNAc
Method in brief: as §1

[11] = target: Neu5Ac(a2-6)Gal(b1-4)GlcNAc(b1-3)Gal(b1-4)GlcNAc(b1-3)Gal(b1-4)GlcNAc
Method in brief: as §1

[12] = target: Neu5Ac(a2-6)Gal(b1-4)GlcNAc(b1-3)Gal(b1-4)[Fuc(a1-3)]GlcNAc(b1-3)Gal(b1-4)[Fuc(a1-3)]GlcNAc
Method in brief: as §1

[13] = target: Neu5Ac(a2-6)Gal(b1-4)GlcNAc(b1-3)GalNAc
Method in brief: as §1

[14] = target: Neu5Ac(a2-6)Gal(b1-4)GlcNAc6S
Method in brief: as §1

Neu5Ac(a2-6)GalNAc = target: Neu5Ac(a2-6)GalNAc
Method in brief: as §1

[15] = target: Neu5Ac(a2-6)GalNAc(b1-4)GlcNAc
Method in brief: as §1

[16] = target: Neu5Ac(a2-6)GlcNAc(b1-4)GlcNAc
Method in brief: as §1

[17] = target: Neu5Ac(a2-6)GlcNAc(b1-4)GlcNAc(b1-4)GlcNAc
Method in brief: as §1

Neu5Ac(a2-8)Neu5Ac = target: Neu5Ac(a2-8)Neu5Ac
Method in brief: as §1

[18] = target: Neu5Ac(a2-8)Neu5Ac(a2-3)Gal(b1-4)Glc
Method in brief: as §1

[19] = target: Neu5Ac(a2-8)Neu5Ac(a2-3)[Gal(b1-3)GalNAc(b1-4)]Gal(b1-4)Glc
Method in brief: as §1

[20] = target: Neu5Ac(a2-8)Neu5Ac(a2-3)[GalNAc(b1-4)]Gal(b1-4)Glc
Method in brief: as §1

[21] = target: Neu5Ac(a2-8)Neu5Ac(a2-8)Neu5Ac
Method in brief: as §1

[22] = target: Neu5Ac(a2-8)Neu5Ac(a2-8)Neu5Ac(a2-3)Gal(b1-4)Glc
Method in brief: as §1

[23] = target: Neu5Ac(a2-8)Neu5Ac(a2-8)Neu5Ac(a2-3)[GalNAc(b1-4)]Gal(b1-4)Glc
Method in brief: as §1

[24] = target: Neu5Ac(a2-8)Neu5Ac(a2-8)Neu5Ac(a2-8)Neu5Ac(a2-3)[GalNAc(b1-4)]Gal(b1-4)Glc
Method in brief: as §1

[25] = target: Neu5Ac(b2-6)Gal(b1-4)GlcNAc
Method in brief: as §1

Neu5Ac(b2-6)GalNAc = target: Neu5Ac(b2-6)GalNAc
Method in brief: as §1

[26] = target: Neu5Ac9Ac(a2-3)Gal(b1-3)GlcNAc
Method in brief: as §1

[27] = target: Neu5Ac9Ac(a2-3)Gal(b1-4)GlcNAc
Method in brief: as §1

[28] = target: Neu5Ac9Ac(a2-6)Gal(b1-4)GlcNAc
Method in brief: as §1

[29] = target: Neu5Gc(a2-3)Gal(b1-3)GlcNAc
Method in brief: as §1

[30] = target: Neu5Gc(a2-3)Gal(b1-3)[Fuc(a1-4)]GlcNAc
Method in brief: as §1

Neu5Gc(a2-3)Gal(b1-4)Glc = target: Neu5Gc(a2-3)Gal(b1-4)Glc
Method in brief: as §1

[31] = target: Neu5Gc(a2-3)Gal(b1-4)GlcNAc
Method in brief: as §1

[32] = target: Neu5Gc(a2-3)Gal(b1-4)[Fuc(a1-3)]GlcNAc
Method in brief: as §1

[33] = target: Neu5Gc(a2-6)Gal(b1-4)GlcNAc
Method in brief: as §1

Neu5Gc(a2-6)GalNAc = target: Neu5Gc(a2-6)GalNAc
Method in brief: as §1

B1: LSectin (Mus musculus), Q8BNX1 (protein)
chain: MNTGEYNKLGSAIEEVSRGQLGRWECYKQRLFFLVLALLVATVLWALILSTLLSSASSKLRVLLSHQDLLRTNASEQKMTLSSLKDDIGACRNCCSVTKAQLQTTLAEFKDIQAKLMEQESILKELQERVTQDLAKASRDRENIRSELFQALEAVKRQNSSCEQCPPSWLPFQGSCYYFSETQATWDTAQSYCGGQGAHLVIVRGLNEQGFLSQHTRGRGYWLGLRAVRHLNKIQGYRWVDGASLNFSHWNSGEPNDSRGHEDCIMMLHSGLWNDAPCTNERDGWICEKRSSCY
Question: Which “glycan array binding signal (z-score)” value [1] does the source give for B1 here?
Answer: 1.53

Question: And the “glycan array binding signal (z-score)” value [2]?
Answer: -0.184

Question: What about the “glycan array binding signal (z-score)” value [3] of the same binder?
Answer: -0.191

Question: What about the “glycan array binding signal (z-score)” value [4] of the same binder?
Answer: -0.176

Question: What about the “glycan array binding signal (z-score)” value [5] of the same binder?
Answer: -0.182

Question: What about the “glycan array binding signal (z-score)” value [6] of the same binder?
Answer: -0.153

Question: What about the “glycan array binding signal (z-score)” value [7] of the same binder?
Answer: 4.19

Question: And the “glycan array binding signal (z-score)” value [8]?
Answer: -0.143

Question: And the “glycan array binding signal (z-score)” value [9]?
Answer: -0.187

Question: What about the “glycan array binding signal (z-score)” value [10] of the same binder?
Answer: -0.175

Question: What about the “glycan array binding signal (z-score)” value [11] of the same binder?
Answer: -0.182

Question: And the “glycan array binding signal (z-score)” value [12]?
Answer: -0.166

Question: What about the “glycan array binding signal (z-score)” value [13] of the same binder?
Answer: -0.187

Question: What about the “glycan array binding signal (z-score)” value [14] of the same binder?
Answer: -0.152

Question: And the “glycan array binding signal (z-score)” value (Neu5Ac(a2-6)GalNAc)?
Answer: 0.717

Question: What about the “glycan array binding signal (z-score)” value [15] of the same binder?
Answer: 3.69

Question: What about the “glycan array binding signal (z-score)” value [16] of the same binder?
Answer: -0.18

Question: What about the “glycan array binding signal (z-score)” value [17] of the same binder?
Answer: -0.185

Question: What about the “glycan array binding signal (z-score)” value (Neu5Ac(a2-8)Neu5Ac) of the same binder?
Answer: -0.178

Question: And the “glycan array binding signal (z-score)” value [18]?
Answer: -0.158

Question: And the “glycan array binding signal (z-score)” value [19]?
Answer: -0.183

Question: And the “glycan array binding signal (z-score)” value [20]?
Answer: -0.173

Question: And the “glycan array binding signal (z-score)” value [21]?
Answer: -0.178

Question: And the “glycan array binding signal (z-score)” value [22]?
Answer: -0.185

Question: What about the “glycan array binding signal (z-score)” value [23] of the same binder?
Answer: -0.159

Question: What about the “glycan array binding signal (z-score)” value [24] of the same binder?
Answer: -0.179

Question: And the “glycan array binding signal (z-score)” value [25]?
Answer: -0.172

Question: And the “glycan array binding signal (z-score)” value (Neu5Ac(b2-6)GalNAc)?
Answer: -0.18

Question: What about the “glycan array binding signal (z-score)” value [26] of the same binder?
Answer: -0.187

Question: What about the “glycan array binding signal (z-score)” value [27] of the same binder?
Answer: -0.187

Question: What about the “glycan array binding signal (z-score)” value [28] of the same binder?
Answer: -0.16

Question: What about the “glycan array binding signal (z-score)” value [29] of the same binder?
Answer: -0.164

Question: And the “glycan array binding signal (z-score)” value [30]?
Answer: -0.167

Question: What about the “glycan array binding signal (z-score)” value (Neu5Gc(a2-3)Gal(b1-4)Glc) of the same binder?
Answer: -0.168

Question: What about the “glycan array binding signal (z-score)” value [31] of the same binder?
Answer: -0.156

Question: What about the “glycan array binding signal (z-score)” value [32] of the same binder?
Answer: -0.163

Question: And the “glycan array binding signal (z-score)” value [33]?
Answer: -0.154

Question: What about the “glycan array binding signal (z-score)” value (Neu5Gc(a2-6)GalNAc) of the same binder?
Answer: -0.136

From the supplement of paper PMC8728848
